In all, about 270,000 compounds went through this assay and about 5,800 (2.1%) were called active. Inconclusive results, whose numbers are uncertain, are shown with a selection of clear calls. Calls come from the whole dose curve; as a rule, active = well fitted inhibition curve with a large enough effect; inconclusive = small, poorly fitted or top-dose-only effect; inactive = flat fitted curve, though single readings scatter. Potencies of inconclusive entries are doubtful fits and often do not repeat.
target: Microtubule-associated protein tau (Homo sapiens) (UniProt P10636); test: qHTS for Inhibitors of Tau Fibril Formation, Thioflavin T Binding; settings: recombinant tau K18 P301L, heparin-induced fibrillization, ThT fluorescence; series mostly up to 57.4 µM; activity, negative = inhibition: at the top concentration; note: nearly all actives have a fitted effect of over 55% in size
How it was run: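 ThT emission at 510 nm, taken 1 hr after adding 30 uM dye, quantifies aggregates formed when 20 uM heparin acts on human tau K18 P301L for 6 hr at 37 C.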
% is set by controls: 0 for no effect and ±100 for the full control effect; potency is the fitted concentration of half-maximal effect; tags give direction and shape of the fitted curve.

Chain of UniProt P10636 (P10636 whole entry, looked up): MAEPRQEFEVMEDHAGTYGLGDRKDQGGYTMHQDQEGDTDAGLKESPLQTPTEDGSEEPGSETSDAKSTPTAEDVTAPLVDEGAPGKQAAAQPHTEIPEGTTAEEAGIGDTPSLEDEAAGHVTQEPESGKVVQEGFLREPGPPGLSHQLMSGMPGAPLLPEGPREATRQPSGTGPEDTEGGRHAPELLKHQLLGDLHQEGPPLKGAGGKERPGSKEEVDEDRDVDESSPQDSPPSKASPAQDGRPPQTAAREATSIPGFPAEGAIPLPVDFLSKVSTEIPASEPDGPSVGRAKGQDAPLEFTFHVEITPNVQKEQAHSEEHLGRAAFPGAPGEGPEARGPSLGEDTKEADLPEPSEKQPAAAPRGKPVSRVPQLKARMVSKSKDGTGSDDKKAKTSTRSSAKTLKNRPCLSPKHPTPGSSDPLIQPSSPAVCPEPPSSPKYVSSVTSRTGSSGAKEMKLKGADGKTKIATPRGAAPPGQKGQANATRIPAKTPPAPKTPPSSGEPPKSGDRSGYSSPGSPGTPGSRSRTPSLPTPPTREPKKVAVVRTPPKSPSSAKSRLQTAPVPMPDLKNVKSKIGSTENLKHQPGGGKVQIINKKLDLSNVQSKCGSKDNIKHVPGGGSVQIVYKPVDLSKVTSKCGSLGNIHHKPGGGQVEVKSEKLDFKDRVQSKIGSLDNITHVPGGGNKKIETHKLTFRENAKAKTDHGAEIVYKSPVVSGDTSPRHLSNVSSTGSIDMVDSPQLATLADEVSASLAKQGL

Compound	Potency	activity, negative = inhibition
OCCC1CN(Cc2c(O)ccc3ccccc23)CCN1CCc1ccccc1 (stereo unspecified)	inconclusive: 10 µM [inhibitor, partial curve]	–
CCOC(=O)C1(C)C(C(=O)OC)=C(c2ccc(OC)cc2)c2ccccc2N1C(=O)OC (stereo unspecified)	–	inactive: -12% [at 81.4 µM]
COc1ccc(Nc2nnc(-c3ccc(O)cc3)c3ccccc23)cc1	inconclusive: 15.8 µM [inhibitor, partial curve]	–
CN(Cc1nccs1)C(=O)CC1C(=O)NCCN1Cc1ccc(-c2ccccc2)cc1 (stereo unspecified)	inconclusive: 25.1 µM [inhibitor, partial curve]	–
Cc1ccc(NC(=O)COC(=O)C(NS(=O)(=O)c2ccc(Cl)cc2)C(C)O)cc1C (stereo unspecified)	–	inactive: 11.1%
CCC(=O)N1CCc2cc(S(=O)(=O)CCC(=O)N3CCN(c4ccc(Cl)cc4)CC3)ccc21	inconclusive: 12.6 µM [inhibitor, partial curve]	–
CC(=O)C(Sc1nccc(-c2cccs2)n1)C(C)=O	–	inactive: -2.99%
O=C(Nc1ccc(Nc2ccccc2)cc1)C1CC1	inconclusive: 14.1 µM [inhibitor, partial curve]	–
Cc1ccc(-c2noc(CCC(=O)N3CCCc4ccccc43)n2)cc1	inconclusive: 35.5 µM [inhibitor, single point]	–
COc1ccc(NC(=O)c2c(NCc3sccc3C)sc3c2CCCC3)c(OC)c1	inconclusive: 14.1 µM [inhibitor, partial curve, poor fit]	–
CCN(CC)P(=O)(Nc1ccc(C)cc1Br)c1ccc(N(C)C)cc1NC(=O)c1ccco1 (stereo unspecified)	inconclusive: 28.2 µM [inhibitor, single point]	–
O=C(CSc1nc2c(sc3ccccc32)c(=O)n1CCCN1CCCC1)NCc1ccccc1	inconclusive: 35.5 µM [inhibitor, single point]	–
O=C(O)CN(c1ccc(F)cc1)S(=O)(=O)c1ccc2c(c1)OCCO2	–	inactive: -11%
CC1=CC(C)(C)Nc2ccc(Cc3ccc4c(c3)C(C)=CC(C)(C)N4)cc21	inconclusive: 14.1 µM [inhibitor, partial curve]	–
CCOc1ccc(NC(=O)C(=O)c2cc(C)n(-c3cc(C)cc(C)c3)c2C)cc1	inconclusive: 0.178 µM [activator, full curve, poor fit]	–
COC(=O)C(C(C)=O)C1c2ccccc2C=C(C)N1C(=O)OC (stereo unspecified)	–	inactive: -6.44% [at 11.5 µM]
COc1ccc(C2=CC3=C(Br)C(=O)C(C)(OC(=O)CCc4ccccc4)C(=O)C3=CO2)cc1 (stereo unspecified)	–	inactive: -2.48%
O=C1c2ccccc2C(Nc2ccc(S(=O)(=O)N3CCOCC3)cc2)N1c1cccnc1 (stereo unspecified)	–	inactive: -14.4%
COc1ccc(NC(=O)c2cccc(-n3c(C)ccc3C)c2)c(OC)c1	inconclusive: 31.6 µM [inhibitor, partial curve]	–
COc1ccc(-c2nsc(SCC(=O)NCc3ccc4c(c3)OCO4)n2)cc1	–	inactive: 2.29%
Cc1ccc(S(=O)(=O)N2CCCC2C(=O)OCc2ccccc2)cc1 (stereo unspecified)	–	inactive: -5.3%
Cc1ccc(Nc2nc(CSc3nnc(-c4ccncc4)n3C)cs2)cc1	inconclusive: 17.8 µM [inhibitor, partial curve, poor fit]	–
CCCN(CCC)C(=O)Cn1c(=O)n(-c2ccc(CC)cc2)c(=O)c2ccc(C(=O)NCCc3ccccc3)cc21	–	inactive: 2.42%
O=c1c2ccccc2n(Cc2ccccc2Cl)c(=O)n1CCc1ccccc1	–	inactive: -5.11%

Compound	Potency	activity, negative = inhibition
Cc1ccc(/C=C2\SC(=S)N(C3CCS(=O)(=O)C3)C2=O)o1 (stereo unspecified)	inconclusive: 25.1 µM [inhibitor, partial curve]	–
N#C/C(=N\Nc1ccc(Br)cc1)C(=N)N1CCOCC1	inconclusive: 31.6 µM [inhibitor, partial curve]	–
COc1cccc(NC(=O)CSC2=Nc3ccccc3C3=NC(CCC(=O)NCCc4ccccc4)C(=O)N23)c1 (stereo unspecified)	–	inactive: -8.05%
Cc1cc(N2CCN(c3nc4ccccc4s3)CC2)n2ncnc2n1	inconclusive: 2.24 µM [inhibitor, partial curve]	–
O=C(Nc1ccc(S(=O)(=O)N2CCCCC2c2cccnc2)cc1)c1ccc(Br)cc1 (stereo unspecified)	–	inactive: 5.33%
Cc1cc(C)c2oc(C(=O)Nc3ccc(S(=O)(=O)N4CCCCCC4)cc3)cc(=O)c2c1	inconclusive: 0.708 µM [inhibitor, full curve]	–
O=C(CC1Sc2ccccc2NC1=O)OCC(=O)N1CCc2ccccc21 (stereo unspecified)	inconclusive: 11.2 µM [inhibitor, partial curve]	–
O=c1cc(-c2cccc([N+](=O)[O-])c2)[nH][nH]1	inconclusive: 1 µM [inhibitor, full curve]	–
O=C(c1ccco1)N1CCN(CC(O)Cn2c3ccccc3c3ccccc32)CC1 (stereo unspecified)	inconclusive: 35.5 µM [inhibitor, single point]	–
Cc1ccc(/C=C/c2onc(C)c2S(=O)(=O)N2CCC(C(=O)Nc3cc(C)ccc3C)CC2)cc1	–	inactive: 6.07%
COc1cc(/C=N/NC(=O)c2nc3ccccn3c2C)cc(OC)c1O	–	inactive: 6.88%
COc1ccccc1CCNC(=O)C(=O)NCC(c1cccs1)S(=O)(=O)c1cccs1 (stereo unspecified)	–	inactive: -0.239%
CN1CCN(/N=C/c2ccc(N(c3ccccc3)c3ccccc3)cc2)CC1	inconclusive: 39.8 µM [inhibitor, single point]	–
CCCCC1=CC2=CC(=O)C(C)(OC(=O)CC)C(=O)C2=CN1CCc1ccc(Br)cc1 (stereo unspecified)	inconclusive: 25.1 µM [inhibitor, partial curve]	inactive: -9.02% [at 11.5 µM]
Cc1ccc(NC(=O)c2ccc3[nH]c(C)cc(=O)c3c2)cc1	–	inactive: -9.92%
Nc1nnc(CC(=O)N/N=C\c2cc([N+](=O)[O-])ccc2O)s1	inconclusive: 20 µM [inhibitor, partial curve]	–
COC(=O)Nc1ccc2[nH]cc(CCNC(C)=O)c2c1	inactive	–
CCc1ccc(NC(=O)CCn2c(=O)c3cccn3c3ccccc32)cc1	–	inactive: -16.7%
COc1ccc(NC(=O)CSc2ccc3nc(-c4ccccc4)cn3n2)c(OC)c1	inconclusive: 11.2 µM [inhibitor, partial curve]	–
Oc1[nH]c2ccccc2c1N=Nc1ccccc1	inconclusive: 2.24 µM [inhibitor, full curve]	–
C=C(C)COc1ccc(-c2nc(N)nc(C)c2-c2ccc(OC)cc2)c(O)c1	inconclusive: 15.8 µM [inhibitor, single point]	–
CC(C)c1ccc(NC(=O)c2ccc(F)c(S(=O)(=O)N3CCc4ccccc43)c2)cc1	inconclusive: 11.2 µM [activator, partial curve]	–
O=C(CSc1ncnc2ccccc12)Nc1ccc2c(c1)OCO2	inconclusive: 31.6 µM [inhibitor, partial curve, poor fit]	–
COc1ccccc1NC(=O)c1sc2nc(C)c(C(=O)Nc3ccc(C)cc3C)c(-c3ccco3)c2c1N	inconclusive: 1.78 µM [inhibitor, full curve]	–

Compound	Potency	activity, negative = inhibition
COC(=O)C1=C(C)NC(=O)/C1=C\c1ccc2c(c1)OCO2	active: 12.6 µM	–
CCOc1ccc(OCC)c(Nc2ccc3cc(S(=O)(=O)N4CCCC4)ccc3n2)c1	–	inactive: -5.82%
O=C(Nc1cccc(C(F)(F)F)c1)c1cc(CN2CCOCC2)on1	–	inactive: -0.624%
Cc1cccnc1NC(=O)c1c(O)c2cccc3c2n(c1=O)CCC3	inconclusive: 14.1 µM [inhibitor, partial curve]	–
Cc1cc(C)n2nc(SCC(=O)Nc3c(C)n(C)n(-c4ccccc4)c3=O)nc2n1	–	inactive: -6.01%
Cc1ccc(N2CCN(S(=O)(=O)c3cccc4ccccc34)CC2)cc1Cl	inconclusive: 0.1 µM [inhibitor, full curve, poor fit]	–
COc1ccc(N2CCN(CCC3Oc4cc([N+](=O)[O-])ccc4NC3=O)CC2)cc1 (stereo unspecified)	active: 7.94 µM	–
CCOC(=O)c1c(NC(=O)CSc2nnc(C)c(=O)[nH]2)sc2c1CCCC2	inconclusive: 22.4 µM [inhibitor, single point]	–
COc1ccc(S(=O)(=O)Nc2ccc(-c3cn4c(C)csc4n3)cc2)cc1	inconclusive: 5.62 µM [inhibitor, partial curve]	–
COc1cccc(CNC(=O)COc2cc(=O)n(C)c3ccccc23)c1	–	inactive: -5.01%
CCn1c(-c2cc(-c3ccccc3)sc2N)n[nH]c1=S	inconclusive: 14.1 µM [inhibitor, partial curve]	–
O=S(=O)(NCC(c1cccnc1)N1CCOCC1)c1ccccc1 (stereo unspecified)	–	inactive: -3.5%
Nc1ccc(O)c2c(=O)cc(-c3ccccc3Cl)oc12	inconclusive: 20 µM [inhibitor, partial curve]	–
Cc1cc(=O)n2c3c(sc2n1)C(=O)N(Cc1ccccc1)C3=O	inconclusive: 20 µM [inhibitor, partial curve]	–
C1=C(c2ccccc2)CCN(c2ncnc3nc[nH]c23)C1	inconclusive: 7.08 µM [inhibitor, partial curve]	–
CCCOc1cc(C)nc(-c2ccccc2O)n1	active: 15.8 µM	–
CC(=O)Nc1ccc(S(=O)(=O)Nc2ccc(N3CCOCC3)cc2)cc1	–	inactive: -4.13%
COc1ccc(N(CC(=O)Nc2ccc3c(c2)OCCO3)S(=O)(=O)c2cccnc2)cc1	inconclusive: 15.8 µM [inhibitor, partial curve]	–
Clc1ccc(OCc2noc(-c3ccsc3)n2)c(Cl)c1	inconclusive: 22.4 µM [inhibitor, partial curve]	–
COc1ccccc1NC(=O)CN1CCN(c2ccc(Cl)cc2)CC1	inconclusive: 25.1 µM [inhibitor, single point]	–
CN1CCS/C1=C/C=C1\SC(=S)N(CC(=O)O)C1=O	active: 15.8 µM	–
Cc1ccc(C)c(NC(=S)NCc2ccc3[nH]c4c(c3c2)CCCC4)c1	inconclusive: 11.2 µM [inhibitor, partial curve]	–
